Measured values published in PubChem BioAssay AID1347073 (National Center for Advancing Translational Sciences (NCATS), 2019).
Hit rate of the full screen: of about 45,000 compounds, about 200 (0.44%) were called active. Inconclusive results (about 7%) are left out. The call rests on the fitted dose curve; in most records, active means well fitted activation curve with a large enough effect; inconclusive means small, poorly fitted or top-dose-only effect; inactive means no such curve, though single readings can be large or run the other way. Some of the results follow.

experiment: qHTS of TDP-43 Inhibitors: NCGC Sytravon Library Screen; settings: yeast TDP-43 toxicity rescue, BacTiter-Glo growth, 24 h; series mostly up to 46.1 µM; growth rescue (activation): at the top concentration; further: nearly all actives have a fitted effect of over 55% in size; on growth rescue (activation): 0% is about no effect
In short: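 TDP-43-expressing yeast, pregrown in raffinose, seeded at OD600 0.02 in galactose medium with compound for 24 hr at 30 deg C. Growth read by BacTiter-Glo luminescence, so rescue of toxicity appears as activation.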
Potency means the concentration at half of the fitted maximal effect.

Structure (SMILES)	growth rescue (activation)	Potency
CCc1sc(C(=O)NNC(=O)c2cncc(Br)c2)cc1C	inactive: 21.2%	
Cc1cccc(NC(=O)CN2C(=O)S/C(=C\c3ccc(-c4cccc(C(=O)O)c4C)o3)C2=O)c1	inactive: -5.96%	
COc1ccc(C(=O)COC(=O)CCN2C(=O)C3C4C=CC(C5CC45)C3C2=O)cc1 (stereo not drawn)	inactive: -15.6%	
Cc1ccc(NC(=O)C2C3C=CC4(O3)C2C(=O)N(CCCN2CCOCC2)C4C(=O)NC2CCCCC2)cc1Cl (stereo not drawn)	inactive: 2.73%	
COc1ccc(NC(=O)CC2C(=O)N(C)C(=S)N2Cc2ccco2)cc1 (stereo not drawn)	inactive: 5.93%	
Nc1c(C(=O)Nc2ccc(Cl)c(C(F)(F)F)c2)sc2nc(-c3ccncc3)ccc12	inactive: 8.45%	
CC(=O)Nc1cccc(C(=O)NC(C)c2ccc(-n3ccnc3)cc2)c1 (stereo not drawn)	inactive: -4.12%	
CCN(CC(=O)Nc1ccc(Br)cc1)CC(=O)Nc1cc(C)on1	inactive: 12.2%	
CC(C)CCn1c2ccccc2c2cc(CC(N)=O)ccc21	inactive: -22%	
COc1ccc(N(CC(=O)N2CCCCCC2)S(=O)(=O)c2ccc(OC)c(OC)c2)cc1	inactive: 1.89%	
Cc1cc2c(SCC(=O)NC3CCCC3)ncnc2s1	inactive: -0.775%	
COCc1ccc(C(=O)N2CCCC(N(C)Cc3ccccc3)C2)s1 (stereo not drawn)	inactive: -0.0032%	
CCOc1ccccc1NC(=S)N1CCC(NC(=O)C(C)(C)C)CC1	inactive: 6.61%	
CCC(C)[C@H](NC(=O)OC(C)(C)C)c1nnc(SCc2c(C)[nH]c(=O)[nH]c2=O)o1 (stereo partly drawn)	inactive: -26.1%	
COc1ccc(C(=O)Cn2cnc3ccccc3c2=O)cc1OC	inactive: -40%	
CC(Oc1ccc(F)cc1)C(=O)NN (stereo not drawn)	inactive: 17.5%	
Cc1ccc(OC(C)C(=O)Nc2ccccc2C(=O)NCc2cccnc2)cc1C (stereo not drawn)	inactive: 14.6%	
CN(C)c1ccc(-c2n[nH]c(=S)n2-c2ccccc2)cc1	inactive: 10.5%	
COc1ccc(CCNC(=O)CC(=O)NCCc2ccc(OC)cc2)cc1	inactive: 3.67%	
CC(=O)c1ccc(NC(=O)CC(NCCC2=CCCCC2)C(=O)O)cc1 (stereo not drawn)	inactive: -4.29%	
CCC(C(=O)NCC1CCCO1)N(C(=O)c1snc(C(N)=O)c1N)c1ccc(Cl)cc1 (stereo not drawn)	inactive: 8.56%	
Cc1ccc(S(=O)(=O)Oc2ccccc2N2C(=O)C3C4CCC(C4)C3C2=O)cc1 (stereo not drawn)	inactive: 22.9%	
COC(=O)c1ccc(N2CCN(S(=O)(=O)c3c(C)cc(C)cc3C)CC2)c([N+](=O)[O-])c1	inactive: 21.8%	
O=C(Cn1nc(C(=O)O)c2ccccc2c1=O)c1c[nH]c2ccccc12	inactive: -1.01%	
C=CCNC(=S)NN=C1CCC(c2ccccc2)CC1 (stereo not drawn)	inactive: 15.6%	
CN(CC(=O)N1CCN(c2ccccc2)CC1)C1CCCc2ccccc21 (stereo not drawn)	inactive: 10.1%	

Structure (SMILES)	growth rescue (activation)	Potency
CC(=O)c1ccc(N2CCN(CN3C(=O)CC4(CCCC4)C3=O)CC2)c(F)c1	inactive: 7%	
CCc1nc(Nc2cccc(F)c2)c2oc3ccccc3c2n1	inactive: 12.8%	
CN(C)C(CNC(=O)c1ccc(-c2ccccc2)cc1)c1ccccc1 (stereo not drawn)	inactive: 9.56%	
COc1ccc(OCC(O)Cn2c(Nc3ccccc3)nc3c2c(=O)n(C)c(=O)n3C)cc1 (stereo not drawn)	inactive: 25.1%	
COc1cccc(CN2CCNC(=O)C2CC(=O)NCCCC2CCCC2)c1OC (stereo not drawn)	inactive: 0.729%	
Fc1ccc(C(c2nnnn2Cc2cccs2)N2CCN(C3CCCC3)CC2)cc1 (stereo not drawn)	inactive: -24.1%	
COc1cccc(C(O)c2nc(-c3ccccc3C)cs2)c1 (stereo not drawn)		active: 11.2 µM
COc1ccc(S(=O)(=O)NC2CC2)cc1-n1cnnn1	inactive: -2.55%	
COc1ccccc1-c1cc(C(=O)NCCCN2CCOCC2)no1	inactive: 1.64%	
Cc1ccc[n+](-c2[nH]c(=O)sc2/C=N/NC(=O)c2ccccc2[O-])c1	inactive: -14.8%	
CCCCNC(=O)COC(=O)c1ccc(F)cc1Cl	inactive: 4.96%	
CN(Cc1ccccc1)C(=O)COC(=O)C1CCN(S(=O)(=O)c2cccs2)CC1	inactive: 5.85%	
COCc1cc(C)nc(SCC(=O)Nc2ccc3[nH]c(=O)[nH]c3c2)c1C#N	inactive: -2.3%	
COc1cccc(OC)c1OCCNC(C)(C)C	inactive: 21.5%	
Brc1ccc(/C=N/Nc2ccccn2)cc1	inactive: 16.2%	
Cc1ccc(O)c(C2=Nc3ccccc3N=C(c3ccc([N+](=O)[O-])cc3)C2)c1	inactive: 6.92%	
Cc1ccc(C(=O)NNC(=O)c2ccc(S(=O)(=O)N3CCCCC3)cc2)cc1	inactive: -62.1%	
O=C(OCc1cc(=O)n2c(n1)sc1ccccc12)c1cccc(O)c1	inactive: 7.22%	
COc1ccc(-c2nn(-c3ccccc3C)cc2CNCCc2cnc[nH]2)cc1F	inactive: 6.54%	
Cc1ccc(-c2nnn(CC(=O)N(CCN3CCOCC3)C(C(=O)NC(C)(C)C)c3ccc(C)o3)n2)cc1 (stereo not drawn)	inactive: 19.8%	
CC1CCC(C(C)C)C(OC(=O)C[n+]2cc(-c3ccc(Cl)cc3)n3c2CCCCC3)C1 (stereo not drawn)	inactive: -1.8%	
OCCCNc1c2ccccc2nc2ccccc12	inactive: 10.4%	
O=C(NNS(=O)(=O)c1ccc(F)cc1)c1cc2ccccc2cc1O	inactive: 0.311%	
O=C(COC(=O)CNC(=O)c1ccccc1)NCCCc1ccccc1	inactive: 1.7%	
COc1ccc(Br)cc1/C=N/N1CCN(Cc2ccccc2)CC1	inactive: 3.91%	
CNc1nc(SCc2ccccc2Cl)nc2c1CCCC2	inactive: -93.2%	

Structure (SMILES)	growth rescue (activation)	Potency
CSc1ncccc1C(=O)Nc1nccs1	inactive: 9.39%	
COc1ccccc1N1CCN(S(=O)(=O)c2ccc3c(c2)oc(=O)n3C)CC1	inactive: 18.2%	
CCCC(=O)Nc1cccc(-c2nc3ccccc3c(=O)o2)c1	inactive: 4.83%	
O=c1[nH]oc(O)c1-c1ncc(C(F)(F)F)cc1Cl	inactive: -3.8%	
CC(C)COC(=O)C(N)C(C(=O)OCC(C)C)c1ccccc1 (stereo not drawn)	inactive: 16.1%	
Cc1c(C(=O)O)sc2nc(/C=C/c3cccc(O)c3)[nH]c(=O)c12	inactive: -1.49%	
O=[N+]([O-])c1ccc(N/N=C/c2cccc(O)c2)cc1	inactive: -45.9%	
Cc1occc1-c1nnc(SCC(=O)Nc2ccccc2)n1C	inactive: -5.54%	
CCOc1ccc(S(=O)(=O)N(C)CC(=O)NCCN2CCOCC2)cc1	inactive: -15.3%	
Cc1cc(/C([O-])=C(/C(=S)Nc2ccc(F)cc2)[n+]2ccccc2)c(C)n1Cc1ccccc1Cl	inactive: 4.27%	
Cc1cccc(S(=O)(=O)NCCNS(=O)(=O)c2cccc(C)c2)c1	inactive: 1.71%	
Cc1cc(F)ccc1S(=O)(=O)Nc1ccccc1C(=O)NC1CCN(Cc2ccccc2)CC1	inactive: -2.05%	
COc1cccc(CNC(=O)CN(C)S(=O)(=O)c2cnc[nH]2)c1	inactive: -4.78%	
COc1ccc(/C(C)=N/NC(=O)Cc2c(C)nc(C)[nH]c2=O)cc1	inactive: -23.9%	
Cc1ccc(S(=O)(=O)N2CC(=NN=C(N)N)C2)cc1	inactive: 5.02%	
COc1cccc(CN2CCNC(=O)C2CC(=O)N(C)Cc2cnccn2)c1OC (stereo not drawn)	inactive: -4.56%	
COc1ccc(-c2c(C#N)c(SCC(=O)Nc3ccccc3C)nc(C)c2C(=O)Nc2ccccc2)cc1OC	inactive: 2.3%	
CC1CCCN(C(=S)SCC(=O)O)C1 (stereo not drawn)	inactive: 17%	
O=C(c1ccc(F)cc1F)N1CCCC(c2nc(-c3ccc(F)cc3)no2)C1 (stereo not drawn)	inactive: 15.2%	
Cc1cc(C)cc(OCC(=O)OC/C(O)=C(\C#N)c2nc3ccccc3[nH]2)c1	inactive: 1.84%	
NC(=O)C1CCN(C(=O)CC2(CC(=O)O)CCCC2)CC1	inactive: -9.99%	
COc1ccc(OC)c(S(=O)(=O)NC(=O)C2(C)CCN2C(=O)Cc2ccccc2Cl)c1 (stereo not drawn)	inactive: 4.44%	
COc1ccc(/C=C/C(=O)NCc2ccc(F)cc2)cc1S(=O)(=O)N1CCOCC1	inactive: 22.4%	
O=C(NN1CCN(Cc2ccccc2)CC1)c1ccc(N2CCOCC2)c([N+](=O)[O-])c1	inactive: 14.8%	
O=C(C1=C(O)C(=O)N(CC2CCCO2)C1c1ccccc1Cl)c1ccco1 (stereo not drawn)	inactive: -20%	
CN(c1ccccc1C(=O)Nc1ccc(F)c(F)c1)S(C)(=O)=O	inactive: 9.86%	

Structure (SMILES)	growth rescue (activation)	Potency
Cn1cc(CN2CCCC(CNC(=O)c3ccc4c(c3)OCO4)C2)c2ccccc21 (stereo not drawn)	inactive: 7.27%	
Cc1nc(N2CCN(c3ccccn3)CC2)c2c(C)c(C(=O)Nc3ccc(F)cc3)sc2n1	inactive: -14.7%	
OCCC1CN(Cc2ccc3nsnc3c2)CCN1C1CCCCC1 (stereo not drawn)	inactive: 2.01%	
Cc1ccc(NC(=O)COC(=O)CSC(=S)N2CCOCC2)cc1	inactive: -5.32%	
CCCC12C(=O)C(C)(C(c3ccccc3)=C1c1ccccc1)C1C(=O)N(c3ccc(C)cc3)C(=O)C12 (stereo not drawn)	inactive: 2.6%	
Cc1csc(NC(=O)Cc2c(F)cccc2Cl)n1	inactive: 19.5%	
COc1ccccc1NC(=O)CN1C(=O)C(c2ccc(F)cc2)=NC1(C)C	inactive: 10%	
Cc1cc(C)c2c(c1)[C@@H]1C=CC[C@@H]1[C@H](c1ccc(S(=O)(=O)N3CCOCC3)cc1)N2	inactive: 13.4%	
COc1ccc(C)cc1NC(=O)CN1CCN(c2ccc(F)cc2)CC1	inactive: 26.6%	
Cc1ccc(N(CC(=O)NCCSCc2ccco2)S(=O)(=O)c2ccc(F)cc2)cc1	inactive: 5.66%	
CCn1c(CNC(=O)c2ccco2)nnc1SCC(=O)Nc1ccccc1Cl	inactive: 2.92%	
CCC(=O)N(NC1=NS(=O)(=O)c2ccccc21)S(=O)(=O)c1ccc(C)cc1	inactive: 10.7%	
CC1CC(CC(C)C(=O)NC(=S)Nc2ccc(S(N)(=O)=O)cc2)C(=O)O1 (stereo not drawn)	inactive: 0.795%	
O=C1N(Cc2cccc(Cl)c2)C[C@@H]2C[C@@H](c3cccn3-c3ccccn3)N3CCC[C@@]123	inactive: 0.468%	
CC(C)Nc1nc(NC(C)(C)C)nc(Oc2ccc(=O)n(-c3ccccc3)n2)n1	inactive: 20.1%	
Cc1cc(C)nc(SCC(=O)OCC(=O)Nc2ccccc2)n1	inactive: 4.63%	
CN1CCN(C(=O)c2ccc(-c3cnc4cccnn34)cc2)CC1	inactive: -7.3%	
CCNc1c(NS(=O)(=O)c2ccc(Br)s2)c(=O)oc2ccccc12	inactive: 4.52%	
O=C(c1cc([N+](=O)[O-])ccc1Cl)N1CCN(Cc2ccc3c(c2)OCO3)CC1	inactive: 12.9%	
Cc1csc(NC(=O)CS(=O)(=O)c2ccccc2)n1	inactive: 9.56%	
COc1cccc(NC(=O)c2cccc(C)c2[N+](=O)[O-])c1	inactive: 6.03%	
CCOc1ccc(-n2c(SCc3ccc([N+](=O)[O-])cc3)nnc2-c2ccc(OC)cc2)cc1	inactive: 0.0104%	
O=C(Nc1ccc(Cl)cc1)C1C2C=CC3(O2)C1C(=O)N(CCCN1CCCCC1)C3C(=O)NC1CCCCC1 (stereo not drawn)	inactive: 16.9%	
O=C(CSc1nnc(-c2ccccc2)n1Cc1ccccc1)NNC(=O)c1ccccc1O	inactive: 9.22%	
COc1ccccc1OCC(=O)Nc1cc(S(=O)(=O)N2CCOCC2)ccc1N1CCCCC1	inactive: 26.3%	
